The campaign covered roughly 110,000 compounds. About 230 (0.21%) showed an effect of 50% or more. Some of the results follow.
Target: DPAP1 (Plasmodium falciparum, UniProt Q8IIJ9)
Assay: primary screen, percent inhibition; read by cleavage of a fluorogenic dipeptide substrate; higher = more effect of the substance
Parameters: species or system P. falciparum D10 trophozoite lysates; single well
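Also: 30 min substrate incubation versus DMSO and 10 µM JCP410 controls.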

DPAP1, sequence (Q8IIJ9 whole entry, looked up): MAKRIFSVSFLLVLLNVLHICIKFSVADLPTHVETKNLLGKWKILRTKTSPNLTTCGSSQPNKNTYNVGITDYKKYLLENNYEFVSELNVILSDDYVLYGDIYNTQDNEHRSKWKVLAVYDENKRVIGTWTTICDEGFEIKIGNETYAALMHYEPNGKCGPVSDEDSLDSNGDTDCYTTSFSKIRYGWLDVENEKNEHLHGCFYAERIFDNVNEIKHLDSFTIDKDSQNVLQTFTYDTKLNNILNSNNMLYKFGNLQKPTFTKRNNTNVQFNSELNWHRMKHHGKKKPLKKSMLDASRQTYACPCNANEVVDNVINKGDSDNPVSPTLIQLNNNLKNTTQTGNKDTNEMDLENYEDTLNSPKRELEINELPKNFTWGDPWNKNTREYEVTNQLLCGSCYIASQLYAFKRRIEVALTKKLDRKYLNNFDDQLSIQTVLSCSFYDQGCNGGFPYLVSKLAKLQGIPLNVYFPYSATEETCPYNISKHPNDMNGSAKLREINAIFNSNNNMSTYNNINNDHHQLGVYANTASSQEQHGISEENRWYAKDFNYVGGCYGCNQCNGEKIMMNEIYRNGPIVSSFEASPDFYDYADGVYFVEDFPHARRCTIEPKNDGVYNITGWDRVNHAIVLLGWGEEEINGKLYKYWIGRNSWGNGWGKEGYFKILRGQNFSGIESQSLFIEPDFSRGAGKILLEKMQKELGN

Compound	% Inhibition @ 10 uM
Cc1ccc(N(CC(N)=O)S(=O)(=O)c2ccccc2)c(C)c1	1.62%
CCOc1ccc(S(=O)(=O)Nc2cccc(N(C)S(C)(=O)=O)c2)cc1	-1.57%
CCN(CC)CC(O)COc1ccc(OC)cc1 (centres unmarked)	-1.45%
Cc1ccccc1-c1nc(CN2CCCC(C(=O)O)C2)c(C)o1 (centres unmarked)	1.42%
Cc1ccc(CCNc2ccccc2)c[n+]1[O-]	-0.759%
CCN(CC)C(=O)C1CCCN(Cc2ccccc2Br)C1 (centres unmarked)	-3.65%
CC(NC(=O)CSc1nnc2c3ccccc3n(C)c2n1)c1ccccc1 (centres unmarked)	-0.0735%
O=c1oc2c(Cl)cc(Cl)cc2cc1-c1nc2ccccc2[nH]1	0.343%
COc1cccc(C(=O)Nc2nc3c(C)cccc3s2)c1OC	3.81%
O=C(c1cc2ccccc2oc1=O)N(Cc1ccccc1)c1cccc([N+](=O)[O-])c1	-1.98%
CCc1nc2ccccc2n1Cc1ccccc1C	1.12%
O=C1C(O)=C(c2ccccc2F)C(=O)c2ccccc21	-5.51%
N#Cc1c(N/C=C/C(=O)c2cccs2)sc2c1CCCC2	3.19%
Cc1nn2c(=O)cc(CSc3nc[nH]n3)nc2s1	-7.44%
Cc1ccc(N2C(=O)C3C4C=CC(C5CC45)C3C2=O)cc1Cl (centres unmarked)	0.13%
Cc1[nH]c2ccc(CN3C(=O)c4ccccc4C3=O)cc2c1C	2.45%
COc1cccc2c(C)cc(N3CCC(O)(c4ccc(Br)cc4)CC3)nc12	-0.233%
Cc1ccccc1NC(C#N)c1ccc(Br)cc1 (centres unmarked)	2.23%
CCOc1ccc(NC(=O)COc2cccc3ccccc23)cc1	0.142%
CC(C)N(C1=N/C(=C\c2ccco2)C(=O)N1c1ccccc1)C(C)C	-11.9%
CC(=O)Nc1c(O)nc2ccc(Br)cc2c1-c1ccccc1	-1.44%
O=C(Nc1nc(-c2ccc(Br)cc2)cs1)c1ccco1	-2.99%
CC(C)C[C@H](NC(=O)OCc1ccccc1)C(=O)N[C@@H](CCc1ccccc1)[C@@H](O)CN(Cc1ccccc1)C(=O)OC(C)(C)C	-0.778%

Compound	% Inhibition @ 10 uM
CCCc1c(O)nc2c(C)cccc2c1C	-4.32%
O=C(Nc1ccc(S(=O)(=O)N2CCCCC2)cc1)c1ccc(Cl)cc1Cl	0.709%
O=C(O)Cn1cc(C(=O)c2ccccc2F)c2ccccc21	-3.53%
CCOc1ccccc1NC(=O)c1cncc(Br)c1	-0.872%
CCCn1c2ccccc2c2cnn(CC(=O)NCc3ccco3)c(=O)c21	-0.968%
O=C(Nc1ccccc1C(=O)Nc1ccccc1)Nc1cccc2ccccc12	-6.02%
Cc1cc2nc(O)c(O)nc2cc1S(=O)(=O)NCC(C)c1ccccc1 (centres unmarked)	6.01%
COc1cccc2cc(NC(=O)C3CCCCC3)c(=O)oc12	-0.769%
Clc1ccccc1CN1CCN(Cc2ccncc2)CC1	0.673%
O=C(O)c1cccc(NC(=O)c2ccccc2C(=O)O)c1	0.266%
CCc1ccc(S(=O)(=O)/N=C2/C=C(Br)C(=O)c3ccccc32)cc1	0.222%
COc1cc(CNCCSc2nnnn2C)ccc1OCc1cccs1	-7.24%
CC1=C(C(=O)Nc2nc3ccccc3s2)C(c2ccccc2)C2=C(O)CC(C)(C)CC2=N1 (centres unmarked)	-0.725%
O=C(NCCSc1nnnn1-c1ccccc1)C(c1ccccc1)c1ccccc1	-6.74%
O=C(O)c1ccc(S(=O)(=O)N2CCOCCOCCOCC2)cc1	-1.17%
Cc1ccc(C)c(NC(=O)/C=C/c2ccccc2Cl)c1	4.34%
Cc1ccc(CS(=O)(=O)c2ncc(Cl)c(C(=O)NCc3ccccc3)n2)cc1	5.54%
CC1CC(C)CN(C2CCN(Cc3ccccc3)CC2)C1 (centres unmarked)	1.88%
Cc1ccc(-c2cc3nc(C)cc(-c4ccccc4)n3n2)cc1	-0.169%
CCN(CC)CCCNc1oc(/C=C/c2ccc(F)cc2)nc1C#N	5.68%
CC(=O)Nc1ccc(S(=O)(=O)N2CCN(C(=O)N(C)C)CC2)cc1	0.755%
COc1cc(OC)c(C2C3=C(O)CC(C)(C)CC3=Nc3nc4ccccc4n32)cc1OC (centres unmarked)	1.73%
COc1ccccc1C(CCNS(=O)(=O)c1ccc(C)cc1)c1ccco1 (centres unmarked)	-4.77%

Compound	% Inhibition @ 10 uM
CCC(Sc1nc2ccccc2c2nc(C)nn12)C(=O)NCc1ccc(C)cc1 (centres unmarked)	3.38%
CCC1(CC)C(=O)N(C)C(=O)N(C)C1=S	6.48%
Cc1cc(C)n(-c2nc3ccccc3nc2N2CCN(S(=O)(=O)c3cccs3)CC2)n1	-1.68%
Cc1ccc2nc(Oc3ccccc3)ccc2c1	1.7%
O=C(Nc1ccc2c(c1)OCO2)c1ccc2c(c1)OCO2	-1.63%
COc1ccccc1N1CCN(C2CC(=O)N(c3ccc(F)cc3)C2=O)CC1 (centres unmarked)	1.08%
N=C1/C(=C\c2cccn2-c2nnc(-c3ccccc3)s2)C(=O)N=C2SC=NN12	0.208%
COCCNC(=O)c1ccc(-c2nc(CS(=O)(=O)c3ccc(C)cc3)c(C)o2)cc1	0.625%
C=CCn1c(SC/C=C(/C)Cl)nc2c1c(=O)[nH]c(=O)n2C	1.8%
CCC(C)c1ccc(NC(=O)c2cnn3c(C(F)F)cc(C)nc23)cc1 (centres unmarked)	0.161%
CC1C(=O)CC(c2ccco2)NC1c1ccco1 (centres unmarked)	3.82%
COC(=O)c1cc2sc(Cl)cc2n1CC(=O)NCCC(C)C	-10.2%
CCOc1ccccc1NC(=O)C1=C(C)NC(=O)NC1c1cccc(OC)c1 (centres unmarked)	-2.6%
O=C(Nc1noc2ccccc12)C(=O)c1ccccc1	0.569%
CCCN(CCC)CCCNS(=O)(=O)c1ccc(OCC)c2ncccc12	0.231%
O=C(NCCN1CCOCC1)c1ccc(-n2cnc3cccnc32)cc1	-0.241%
O=c1cccc2n1C[C@H]1C[C@@H]2CN(Cc2c(O)ccc3ccccc23)C1	3.15%
COc1ccc(OC)c(CCNCc2c(C(=O)O)n(Cc3ccc(C)cc3)c3cc(OC)ccc23)c1	6.66%
COc1cccc(C(=O)Nc2ccc(CC#N)cc2)c1	6.35%
Nc1cccc2c1c1c(n2S(=O)(=O)c2ccccc2)CCC1	-2.99%
O=C(Nc1cc(Cl)cc(Cl)c1)c1ccccc1Br	2.46%
CCCS(=O)(=O)c1c(S(=O)(=O)CCC)c2c(N)cccn2c1C(=O)c1ccc(C)cc1C	4.54%
COc1ccc(-c2cn3nc(N4CCCC(C(=O)NCc5ccc6c(c5)OCO6)C4)sc3n2)cc1 (centres unmarked)	5.14%

Compound	% Inhibition @ 10 uM
Cc1ccc(C)c(S(=O)(=O)NCc2ccc(C(=O)N3CCCCCC3)cc2)c1	-7.61%
O=C(c1ccco1)N(Cc1cccc([N+](=O)[O-])c1)c1ccccc1	-2.03%
O=C(COc1ccc(Cl)cc1Cl)N1CCCC1	-1.77%
O=C(Nc1nc2c(Cl)c(Cl)ccc2s1)c1cccnc1	2.01%
COc1cccc(C2=NS(=O)(=O)N(C)C(C(=O)NCCc3ccccc3)=C2)c1	0.655%
CCOc1ccc(NC2=NC(=O)C(CC(=O)Nc3ccc(C)c(C)c3)S2)cc1 (centres unmarked)	-0.941%
CN1CCC(N(C)Cc2cccc3ccccc23)CC1	3%
Cc1cc2nc(O)c(O)nc2cc1S(=O)(=O)N1CCc2ccccc2C1	2.42%
CCOC(=O)c1sc(NC(=O)C(CC)Sc2nc3ccccc3s2)nc1C (centres unmarked)	-6.95%
Cc1c(C(=O)NCc2ccc(F)cc2)oc2ccc3c(c12)C(=O)CC1(CCCC1)O3	-1.08%
O=c1c2nccnc2nc(SCc2cc(=O)n3cc(Cl)ccc3n2)n1Cc1ccccc1	1.1%
O=C(NCCc1ccccc1)C1CC(c2c(F)cccc2Cl)=NO1 (centres unmarked)	1.7%
COc1cccc2c1cc1c(=O)n(CC(=O)NCCC(C)C)nc(C)n12	-3.47%
CC(C)N(C)C1CCN(S(=O)(=O)c2ccc(-c3cc(C(F)(F)F)no3)s2)CC1	-1.05%
Cc1nn(-c2ccccc2F)c2c1C(=O)CC(c1ccccc1)C2 (centres unmarked)	2.7%
CC1=C(C(=O)Nc2ccccc2C)C(c2cccc(F)c2)n2ncnc2N1 (centres unmarked)	-1.22%
CCOc1cc(C2C(C#N)=C(N)Oc3[nH]nc(C)c32)ccc1OCc1ccccc1 (centres unmarked)	-1.08%
CC(C(=O)N1CCN(Cc2ccc3c(c2)OCO3)CC1)n1sc2ccccc2c1=O (centres unmarked)	-7.17%
Cc1cc(=O)n(CC(=O)NCc2ccccc2)c2c1c(C)nn2-c1cccc(F)c1	3.14%
CC(C)OC(=O)C(N)c1ccccc1 (centres unmarked)	-0.582%

Reference: article PMC6919601, “Identification of Plasmodium dipeptidyl aminopeptidase allosteric inhibitors by high throughput screening” (PLoS ONE, 2019)
